# Laboratory results taken from the supplement of paper PMC9135407.
# Values joined by “and” are separate entries in the source; they are usually repeats but may differ in a detail not shown here. Identical values can stand only once. Counter-ions that a name gives are not always drawn. About 620 (11%) of roughly 5,800 compounds showed activity.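 The calls were made as follows: active = score above a cut-off or among the top three wells of a plate; in these data no inactive exceeds 0.85.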 The entries are a selection whose mix differs from that of the whole data set.
# Test system: primary human hepatic stellate cells (donor 1)
# Test: scaled lipid accumulation score (0 = DMSO-like, 1 = nortriptyline-like); higher = stronger HSC inactivation (lipid re-accumulation), active = hit call of the paper
# Settings: 48 h
# [1] = library stock concentration: 3.33 mM
# [2] = library stock concentration: 10 mM
# [3] = library stock concentration: 1 mM
smiles,measurement,setting,value
Cc1cc(CS(=O)(=O)c2ccccc2)cc(OCc2ccc(CN3CCC[C@@H]3CO)cc2)c1,scaled lipid accumulation score,[1],inactive: ≤ -0.009
CC(C)(C)C(O)/C=C/c1ccc2c(c1)OCO2 (configuration not stated) [Stiripentol],scaled lipid accumulation score,[2],inactive: ≤ 0
Nc1cc(N2CCCCC2)nc(N)[n+]1OS(=O)(=O)[O-] [Minoxidil sulfate],scaled lipid accumulation score,library stock concentration: 17.3 mM,inactive: ≤ -0.021
CC(/C=C/C(=O)NO)=C\[C@@H](C)C(=O)c1ccc(N(C)C)cc1 [Trichostatin A],scaled lipid accumulation score,[3],active: 0.793
CCCCC(CC)COC(=O)c1ccccc1O (configuration not stated) [Octisalate],scaled lipid accumulation score,library stock concentration: 8 mM,inactive: 0.01
"Cc1c(C)c2c(c(C)c1O)CC[C@@](C)(CCC[C@H](C)CCC[C@H](C)CCCC(C)C)O2 (racemic) [Tocopherol (R,S)]",scaled lipid accumulation score,,inactive: ≤ 0
CCN(CCCc1ccccc1)CCCc1ccccc1 [Alverine citrate salt],scaled lipid accumulation score,,inactive: 0.597
CCN(CCCc1ccccc1)CCCc1ccccc1 [Alverine citrate],scaled lipid accumulation score,[2],inactive: 0.417
CCN(CCCc1ccccc1)CCCc1ccccc1 [Alverine Citrate],scaled lipid accumulation score,[1],inactive: 0.189
same,scaled lipid accumulation score,[2],inactive: 0.661
CC(=O)[C@H]1CC[C@H]2[C@@H]3CC=C4C[C@@H](OC(=O)CCC(=O)O)CC[C@]4(C)[C@H]3CC[C@]12C,scaled lipid accumulation score,[2],inactive: ≤ 0
CC(CCc1ccc(O)cc1)NCC(O)c1ccc(O)cc1 (configuration not stated),scaled lipid accumulation score,[2],inactive: ≤ 0
CC(CCc1ccc(O)cc1)NCC(O)c1ccc(O)cc1 (configuration not stated) [Ractopamine],scaled lipid accumulation score,library stock concentration: 6.6 mM,inactive: ≤ -0.006
O=P(O)(O)C(O)(Cc1cccnc1)P(=O)(O)O [Risedronic acid],scaled lipid accumulation score,library stock concentration: 7.1 mM,inactive: 0.045
O=S(=O)(NO)c1ccccc1 [Piloty's Acid],scaled lipid accumulation score,[3],inactive: ≤ 0
O=C(Nc1ccc2[nH]ncc2c1)C1CCC1 [Rhodblock 6],scaled lipid accumulation score,[2],inactive: 0.092
N[C@@H](Cc1ccc(F)cc1)C(=O)O [p-Fluoro-L-phenylalanine],scaled lipid accumulation score,[2],inactive: ≤ -0.07
Nc1nccc2c1ncn2[C@@H]1O[C@H](CO)[C@@H](O)[C@H]1O [3-deazaadenosine],scaled lipid accumulation score,[2],inactive: ≤ -0.07
COc1cc2nc(N3CCN(C(=O)c4ccco4)CC3)nc(N)c2cc1OC [Prazocin],scaled lipid accumulation score,library stock concentration: 13 mM,active: 1.03
O=C(O)c1cc(O)c(O)c(O)c1 [Gallic acid],scaled lipid accumulation score,[2],inactive: ≤ 0
same,scaled lipid accumulation score,library stock concentration: 11.8 mM,inactive: ≤ -0.001
CCN(CC)C(=O)N1CCN(C)CC1 [Diethylcarbamazine citrate],scaled lipid accumulation score,,inactive: ≤ 0
same,scaled lipid accumulation score,library stock concentration: 5.1 mM,inactive: 0.024
same,scaled lipid accumulation score,[2],inactive: ≤ 0
Cc1c(O)cccc1C(=O)N[C@@H](CSc1ccccc1)[C@H](O)CN1C[C@H]2CCCC[C@H]2C[C@H]1C(=O)NC(C)(C)C [Nelfinavir Mesylate],scaled lipid accumulation score,library stock concentration: 3 mM,inactive: ≤ 0
same,scaled lipid accumulation score,[1],inactive: ≤ 0
same,scaled lipid accumulation score,[2],inactive: 0.835
Cc1c(O)cccc1C(=O)N[C@@H](CSc1ccccc1)[C@H](O)CN1C[C@H]2CCCC[C@H]2C[C@H]1C(=O)NC(C)(C)C,scaled lipid accumulation score,[2],inactive: 0.197
Cc1c(O)cccc1C(=O)N[C@@H](CSc1ccccc1)[C@H](O)CN1C[C@H]2CCCC[C@H]2C[C@H]1C(=O)NC(C)(C)C [Nelfinavir mesylate hydrate],scaled lipid accumulation score,[2],inactive: ≤ -0.07
CCSc1ccc2c(c1)N(CCCN1CCN(C)CC1)c1ccccc1S2 [Thiethylperazine malate],scaled lipid accumulation score,,inactive: 0.362
Nc1ccn([C@@H]2O[C@H](CO)[C@@H](O)[C@H]2O)c(=O)n1 [Cytidine],scaled lipid accumulation score,[1],inactive: ≤ 0
same,scaled lipid accumulation score,[2],inactive: 0.017
CC(C)CCC[C@@H](C)[C@H]1CC[C@H]2[C@@H]3CC=C4C[C@@H](O)CC[C@]4(C)[C@H]3CC[C@]12C [Cholesterol],scaled lipid accumulation score,library stock concentration: 5.2 mM,inactive: ≤ 0
CC(C)NCCCn1c(Sc2cc3c(cc2I)OCO3)nc2c(N)ncnc21,scaled lipid accumulation score,[1],inactive: 0.728
Cc1cccc(Nc2nc(-c3ccncc3)cs2)c1,scaled lipid accumulation score,[3],inactive: ≤ 0
CN(C)CCC(c1ccccc1)c1ccccn1 (configuration not stated) [Pheniramine maleate],scaled lipid accumulation score,,inactive: 0.036
same,scaled lipid accumulation score,[2],inactive: 0.061 and inactive: ≤ 0
CN(C)CCC(c1ccccc1)c1ccccn1 (configuration not stated) [Pheniramine Maleate],scaled lipid accumulation score,[1],inactive: ≤ 0
same,scaled lipid accumulation score,[2],inactive: 0.212
CCOc1ccc(Cc2cc([C@@H]3O[C@H](CO)[C@@H](O)[C@H](O)[C@H]3O)ccc2Cl)cc1 [Dapagliflozin],scaled lipid accumulation score,[1],inactive: ≤ 0
same,scaled lipid accumulation score,[2],inactive: ≤ 0
"CCCCC[C@H](O)/C=C/[C@@H]1[C@H]2C/C=C\CCCC(=O)O[C@H]2C[C@H]1O [Prostaglandin F2.alpha. 1,9-lactone]",scaled lipid accumulation score,[3],inactive: ≤ 0
CN(C)CCN1C(=O)c2cccc3cc(N)cc(c23)C1=O [Amonafide],scaled lipid accumulation score,[1],inactive: 0.468
same,scaled lipid accumulation score,[2],inactive: 0.186
COc1ccc2cc1Oc1ccc(cc1)C[C@H]1c3c(cc4c(c3Oc3cc5c(cc3OC)CCN(C)[C@@H]5C2)OCO4)CCN1C [Cepharanthine],scaled lipid accumulation score,[2],active: 0.944
O=c1cc(CN2CCOCC2)occ1OCCCCCSc1ccnc2cc(C(F)(F)F)ccc12,scaled lipid accumulation score,[1],inactive: ≤ -0.009
same,scaled lipid accumulation score,[2],inactive: 0.475
COc1ccc(/C=C2\COc3ccc(C)cc3C2=O)cc1O,scaled lipid accumulation score,[2],inactive: 0.275
"COC1=C(OC)C(=O)c2ccccc2C1=O [2,3-Dimethoxy-1,4-naphthoquinone]",scaled lipid accumulation score,[2],inactive: 0.634
O[C@@H]1CO[C@H]2[C@@H]1OC[C@@H]2O [Isosorbide],scaled lipid accumulation score,[1],inactive: ≤ 0
same,scaled lipid accumulation score,[2],inactive: ≤ -0.001
CC(=O)c1ccc2c(c1)N(CCCN1CCN(CCO)CC1)c1ccccc1S2,scaled lipid accumulation score,[2],inactive: 0.638
CS(=O)(=O)c1ccc(Cn2c3c(c4cc(F)cc(F)c42)CCCC3CC(=O)O)cc1 (configuration not stated),scaled lipid accumulation score,[2],inactive: ≤ -0.006
Cc1c(CC(C)(C)C(=O)O)n(Cc2ccc(Cl)cc2)c2ccc(F)cc12,scaled lipid accumulation score,[2],inactive: ≤ -0.006
O=C(O)c1cc(=O)c2c(OCC(O)COc3cccc4oc(C(=O)O)cc(=O)c34)cccc2o1 [Cromolyn Sodium],scaled lipid accumulation score,[2],inactive: 0.16
O=C(O)c1cc(=O)c2c(OCC(O)COc3cccc4oc(C(=O)O)cc(=O)c34)cccc2o1 [Cromolyn sodium],scaled lipid accumulation score,[2],inactive: 0.001
O=C(O)c1cc(=O)c2c(OCC(O)COc3cccc4oc(C(=O)O)cc(=O)c34)cccc2o1 [Cromolyn disodium salt],scaled lipid accumulation score,,inactive: ≤ 0
